The text below walks through data of the supplement of paper PMC9446081.

Hit rate of the full screen: of about 39,000 compounds, about 220 (0.56%) showed activity. This is one part of the list.
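Note: static incubation at 37 °C against the wild-type strain, values averaged over two biological replicates.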

For the experiment, the system named is Escherichia coli K-12 BW25113. The experiment can be described thus: relative growth (OD600 normalised to plate interquartile mean) (fraction); higher = less growth inhibition, active = 0.2 or less. The conditions noted are these: 50 µM; LB; incubation time: overnight (16-24 h).
As to `COc1ccc(S(=O)(=O)Nc2cccc3c2O[C@@H](CN(C)Cc2ccncc2)[C@@H](C)CN([C@@H](C)CO)C3=O)cc1`, the relative growth is inactive: 0.972.
The result for `C[C@H]1CCCCO[C@@H](CN(C)C(=O)c2ccccc2)[C@@H](C)CN([C@@H](C)CO)C(=O)c2cc(NS(=O)(=O)c3ccc(Cl)cc3)ccc2O1` reads inactive: 1.02; that for `COc1ccc(CN(C)C[C@@H]2OCCCC[C@@H](C)Oc3ccc(NC(=O)Nc4ccccc4)cc3C(=O)N([C@H](C)CO)C[C@@H]2C)cc1`, inactive: 0.945; that for `COc1ccc(S(=O)(=O)N(C)C[C@@H]2OCCCC[C@@H](C)Oc3ccc(NC(=O)C4CCCCC4)cc3C(=O)N([C@@H](C)CO)C[C@@H]2C)cc1`, inactive: 1.03.
To `Cc1cc(C(C)(C)C)c(O)c(C)c1CC1=NCCN1.Cl` belongs inactive: 1.09.
Take `C[C@@H]1CCCCO[C@H](CN(C)C(=O)C2CCCCC2)[C@@H](C)CN([C@@H](C)CO)C(=O)c2cc(NC(=O)Nc3ccc(F)cc3)ccc2O1`: the relative growth was inactive: 1.05.
`C[C@@H]1CN([C@H](C)CO)C(=O)c2cc(NC(=O)c3ccccc3)ccc2O[C@@H](C)CCCCO[C@@H]1CN(C)S(=O)(=O)c1ccccc1`: the relative growth was inactive: 1.05.
`O=C1N[C@H](Cc2c[nH]c3ccccc23)COC(=O)[C@@H](Cc2ccc(F)cc2)CC=CC[C@@H]1CC(=O)N(CCO)Cc1ccccc1`: the relative growth is inactive: 1.
To `C[C@@H]1CN([C@H](C)CO)S(=O)(=O)c2ccc(-c3ccncc3)cc2O[C@H]1CN(C)C(=O)c1cccc(F)c1` belongs inactive: 0.973; to `C[C@@H]1CN([C@H](C)CO)C(=O)Cc2cc(NC(=O)CCCN(C)C)ccc2O[C@H]1CN(C)S(=O)(=O)c1cccs1`, inactive: 0.998; to `C[C@H]1CN([C@@H](C)CO)C(=O)c2cc(NC(=O)Nc3cccc4ccccc34)ccc2O[C@@H]1CN(C)C(=O)NC1CCCCC1`, inactive: 1.02.
For `C[C@@H]1CN([C@@H](C)CO)C(=O)c2cc(NC(=O)CCCN(C)C)ccc2O[C@@H](C)CCCCO[C@H]1CN(C)CC1CCCCC1`, the relative growth is inactive: 1.
The result for `C[C@@H]1CCCCO[C@@H](CN(C)S(=O)(=O)c2ccc(Cl)cc2)[C@@H](C)CN([C@@H](C)CO)C(=O)c2cc(NC(=O)c3ccncc3)ccc2O1` reads inactive: 1.01.
As to `C[C@@H]1CN([C@@H](C)CO)C(=O)c2ccccc2-c2ccccc2CO[C@@H]1CN(C)S(=O)(=O)c1cn(C)cn1`, the relative growth was inactive: 1.01.
For the compound `C[C@H](CO)N1C[C@H](C)[C@@H](CN(C)C(=O)Nc2ccccc2)OCCCC[C@H](C)Oc2ccc(NC(=O)c3ccccc3)cc2C1=O`, the relative growth was inactive: 1.02.
To `CC(C)NC(=O)Nc1ccc2c(c1)C(=O)N([C@H](C)CO)C[C@@H](C)[C@H](CN(C)Cc1ccc(C(=O)O)cc1)O2` belongs inactive: 1.02; to `CC1(C)CCCC2(C)C1CCC1(C)OC(=O)CC12` (centres undefined), inactive: 0.873.
Take `COC1=C2C[C@@H](C)C[C@H](OC)[C@H](O)[C@@H](C)/C=C(\C)[C@H](OC(N)=O)[C@@H](OC)/C=C\C=C(/C)C(=O)NC(=CC1=O)C2=O`: the relative growth was inactive: 1.01.
In the case of `C[C@@H]1CN([C@H](C)CO)C(=O)c2cc(NC(=O)Nc3ccc(C(F)(F)F)cc3)ccc2O[C@@H](C)CCCCO[C@H]1CN(C)Cc1ccc(C(F)(F)F)cc1`, the relative growth is inactive: 1.04.
To `Cc1ccc(S(=O)(=O)N2C[C@@H](O)COC[C@H]3O[C@H](CC(=O)N[C@@H]4CCN(Cc5ccccc5)C4)CC[C@@H]32)cc1` belongs inactive: 0.987.
Take `COCCNC(=O)C[C@@H]1CC[C@H]2[C@@H](COC[C@@H](O)CN2S(=O)(=O)c2ccccc2C)O1`: the relative growth was inactive: 1.01.
To `COCC(=O)N1CC[C@]2(CC1)CN(Cc1cccc(c1)OC)[C@H](CO)c1c2c2ccc(cc2n1C)OC` belongs inactive: 1.02.
The result for `C[C@@H]1CCCCO[C@@H](CN(C)C(=O)Nc2cccc3ccccc23)[C@@H](C)CN([C@@H](C)CO)C(=O)c2cc(NC(=O)Nc3ccc(C(F)(F)F)cc3)ccc2O1` reads inactive: 1.03.
The result for `COc1cccc(S(=O)(=O)N(C)C[C@@H]2Oc3cc(C#CCN(C)C)ccc3S(=O)(=O)N([C@H](C)CO)C[C@H]2C)c1` reads inactive: 0.997; that for `C[C@@H]1CN([C@@H](C)CO)C(=O)c2cccc(NC(=O)Nc3ccc(C(F)(F)F)cc3)c2O[C@@H]1CN(C)C(=O)Nc1cccc2ccccc12`, inactive: 0.969.
With `C[C@H](CO)N1C[C@H](C)[C@H](CN(C)S(=O)(=O)c2ccccc2)Oc2ncc(-c3cccc(C(=O)N(C)C)c3)cc2C1=O`, the relative growth was inactive: 1.
The result for `C[C@@H]1CN([C@@H](C)CO)C(=O)c2cccc(NC(=O)Nc3ccc(C(F)(F)F)cc3)c2O[C@@H]1CN(C)Cc1ccc(C(=O)O)cc1` reads inactive: 0.987.
To `CC(C)NC(=O)Nc1cccc2c1O[C@H](CN(C)S(=O)(=O)c1ccc(F)cc1)[C@@H](C)CN([C@H](C)CO)C2=O` belongs inactive: 1.02.
To `COc1ccc2c3c([nH]c2c1)[C@H](CO)N(C[C@]13CN(Cc2ccccc2)C1)S(=O)(=O)c1cn(cn1)C` belongs inactive: 0.978.
As for `CC(C)C(=O)[C@@H]1C(=O)O[C@@H](c2ccoc2)[C@]2(C)[C@H](O)[C@@H](O)[C@@]34O[C@]5(C)O[C@]3([C@H]12)[C@H](O)[C@@]1(O)[C@H](O)[C@]2(C)C[C@]1(O5)[C@@]4(C)[C@H]2CC(=O)O`, the relative growth was inactive: 1.03.
Consider `C[C@H]1CCCCO[C@@H](CN(C)Cc2ccc(C(=O)O)cc2)[C@@H](C)CN([C@@H](C)CO)C(=O)c2cc(NS(=O)(=O)c3cccs3)ccc2O1`, for which the relative growth was inactive: 1.04.
To `COc1cccc(CN2C[C@@H](C)[C@H](OC)CN(C)C(=O)c3cc(NS(=O)(=O)c4cn(C)cn4)ccc3OC[C@H]2C)c1` belongs inactive: 1.01.
The result for `C=CC(=O)Nc1cccc(C)c1Nc1ncc2cc(-c3c(Cl)c(OC)cc(OC)c3Cl)ccc2n1` reads inactive: 0.979; that for `Cc1ccc(S(=O)(=O)Nc2ccc3c(c2)C(=O)N([C@@H](C)CO)C[C@H](C)[C@H](CN(C)CC2CCCCC2)OCCCC[C@H](C)O3)cc1`, inactive: 0.979.
As to `CN(C[C@@H](O)CN)S(=O)(=O)c1ccccc1`, the relative growth was inactive: 1.01.
For the compound `C[C@H](CO)N1C[C@H](C)[C@@H](CN(C)Cc2ccccc2)Oc2c(NC(=O)c3ccc(-c4nccs4)cc3)cccc2C1=O`, the relative growth is inactive: 1.03.
In the case of `O=C(O)C1CCN(c2ncccn2)CC1`, the relative growth was inactive: 1.02.
To `C[C@H]1CN([C@@H](C)CO)C(=O)c2cccc(NC(=O)Nc3ccccc3)c2O[C@@H]1CN(C)C(=O)Nc1ccc(C(F)(F)F)cc1` belongs inactive: 0.753; to `C[C@H]1CN([C@@H](C)CO)C(=O)Cc2cc(NC(=O)Cn3cnnn3)ccc2O[C@@H]1CN(C)S(=O)(=O)c1cccs1`, inactive: 0.997.
The result for `CC(C)NC(=O)Nc1ccc2c(c1)C(=O)N([C@@H](C)CO)C[C@@H](C)[C@H](CN(C)S(=O)(=O)c1cn(C)cn1)OCCCC[C@H](C)O2` reads inactive: 0.984; that for `Cc1noc(C)c1S(=O)(=O)N(C)C[C@H]1OCCCC[C@@H](C)Oc2ccc(NC(=O)Nc3ccc(C(F)(F)F)cc3)cc2C(=O)N([C@H](C)CO)C[C@@H]1C`, inactive: 0.978; that for `COc1ccc(S(=O)(=O)N(C)C[C@@H]2Oc3c(NS(=O)(=O)c4ccc(C)cc4)cccc3C(=O)N([C@H](C)CO)C[C@@H]2C)cc1`, inactive: 1.02.
To `C[C@@H]1CN([C@H](C)CO)C(=O)c2cc(NC(=O)Nc3cccc4ccccc34)ccc2O[C@H]1CN(C)C(=O)Nc1ccc(C(F)(F)F)cc1` belongs inactive: 0.946.
With `C[C@H]1CN([C@@H](C)CO)C(=O)Cc2cc(NC(=O)C3CC3)ccc2O[C@@H]1CN(C)C(=O)Nc1ccc(F)cc1`, the relative growth is inactive: 1.02.
To `C=CC(=O)N[C@@H]1c2ccccc2C[C@@H]1O` belongs inactive: 1.02; to `Cl.N=c1ccn2c(n1)OC1C(O)C(CO)OC12` (centres undefined), inactive: 1.09.
As for `COc1ccc(NC(=O)Nc2ccc3c(c2)[C@H]2C[C@H](CC(=O)NCC(F)(F)F)O[C@H](CO)[C@H]2O3)cc1`, the relative growth was inactive: 1.02.
In the case of `COCC(=O)N1[C@H](C(=O)N2CCN(C)CC2)[C@@H](CO)[C@@H]2Cn3c(ccc(C4=CCCCC4)c3=O)[C@@H]21`, the relative growth is inactive: 1.01.
Take `C[C@H](CO)N1C[C@H](C)[C@H](CN(C)Cc2ccc(-c3ccccc3)cc2)Oc2c(NC(=O)c3nc4ccccc4s3)cccc2C1=O`: the relative growth was inactive: 1.01.
The result for `C[C@@H]1CCCCO[C@@H](CN(C)Cc2ccccc2)[C@@H](C)CN([C@@H](C)CO)C(=O)c2cc(NC(=O)c3ccccc3)ccc2O1` reads inactive: 1; that for `COc1ccccc1S(=O)(=O)N[C@@H]1CC[C@H](CCNC(=O)C2CC2)O[C@H]1CO`, inactive: 0.984; that for `O=C(Cc1ccccc1)Nc1ccccc1Sc1ccccc1`, inactive: 1.01.
The result for `CC(C)c1cn(CC[C@H]2CC[C@H](N)[C@@H](CO)O2)nn1` reads inactive: 0.981; that for `COc1cccc(S(=O)(=O)N2C[C@H](O)COC[C@H]3O[C@H](CC(=O)N4CCN(C)CC4)CC[C@@H]32)c1`, inactive: 0.992; that for `NCCCCCc1nc2ccccc2[nH]1`, inactive: 0.944.
Consider `NC(=S)Nc1ccncc1`, for which the relative growth was inactive: 1.02.
To `COc1ccc(C#Cc2cnc3c(c2)C(=O)N([C@@H](C)CO)C[C@@H](C)[C@@H](CN(C)C(=O)CN(C)C)O3)cc1` belongs inactive: 1.03; to `C[C@@H]1CCCCO[C@H](CN(C)C(=O)CCC(F)(F)F)[C@@H](C)CN([C@@H](C)CO)C(=O)c2cc(NC(=O)CCCCCC(=O)Nc3ccccc3N)ccc2O1`, inactive: 1.07; to `COc1ccc(S(=O)(=O)N(C)C[C@@H]2Oc3c(NC(=O)C4CC4)cccc3C(=O)N([C@@H](C)CO)C[C@H]2C)cc1`, inactive: 0.997.
